# Reference: article PMC10668032
# This is one part of the list. At the low end of the ranking the order means little.
# Target: SIX1 homeodomain (reference allele) (UniProt Q15475)
# Experiment: universal protein binding microarray
# Settings: Universal all-10-mer PBM (8x60K, AMADID 030236), 300 nM GST-tagged protein, Alexa Fluor 488 anti-GST; buffer, salt, pH and temperature not stated; high values mean tight binding; most listed sequences are background and not binding sites; double strand, one strand shown
row,Sequence,binding signal [E-score]
1,AATGTTCT,-0.221
2,AGTTGAAT,-0.255
3,CTTGAAAC,-0.0949
4,CTGGTAGA,0.0218
5,GCCTTCGC,-0.159
6,GTTAATCA,-0.0969
7,GGCGTATA,0.179
8,ACGTATTA,0.306
9,CATGAATC,-0.0505
10,AGATCGGA,0.255
11,CCACATAC,0.0202
12,ATTAGCGG,0.00822
13,AGGAGCAG,-0.252
14,ACTAGACC,0.116
15,CGTTCTCC,-0.135
16,ACTGATCT,0.34
17,AGTTGGCC,-0.306
18,TATGCAGA,0.135
19,AAACAGAG,-0.257
20,AGTTAGAC,0.017
21,ACCAGGCC,-0.00415
22,GGGAGTCA,-0.079
23,GCCCAGGA,0.088
24,ACCTAAAA,-0.165
25,CCAGTATA,0.133

row,Sequence,binding signal [E-score]
1,CTGAGCAC,-0.0551
2,AAGTTCAA,-0.108
3,ATTGGTAA,-0.149
4,CACTACAG,0.0478
5,AGCACTGA,-0.22
6,AGTACTCC,-0.109
7,TCACAGAA,0.0147
8,AGATTATA,0.186
9,AAGGTGTA,0.134
10,GTTTGGGA,-0.0271
11,CAGCCAAC,-0.143
12,CCGCGAAA,0.00208
13,AAGCGACT,-0.177
14,ATGGCCTG,-0.105
15,GCGAAGCC,-0.222
16,ATTGACTA,0.0925
17,AGCGCCAG,-0.0548
18,ATAGGGTA,0.295
19,CAGAGGCG,-0.188
20,CGAAGTAC,0.0261
21,AACCTCTA,-0.0947
22,ATCTAAAA,0.00047
23,CCATGGAA,-0.227
24,TTCCAAAA,-0.238
25,ATTGCCGA,-0.0271

row,Sequence,binding signal [E-score]
1,AAGCCCCG,-0.135
2,CCATCTGC,0.0909
3,ACTATTTC,-0.162
4,ACTACTTA,-0.102
5,ACTCCAGC,0.0597
6,GTGTAAAA,-0.0529
7,AGGATGGC,-0.0238
8,GACGATTA,0.00313
9,CTGCGGAC,-0.148
10,GGGTGACC,-0.185
11,ATATAGTA,0.304
12,CTCCCGTA,0.117
13,ACACTTCG,-0.0736
14,ATCTTAGA,0.217
15,GATTGCAA,-0.105
16,AAAGGAAG,-0.269
17,GCGTTCCC,-0.145
18,TCAAGGCA,-0.142
19,CCAGCGCG,-0.044
20,AGCAATGA,-0.174
21,AATGTATG,-0.139
22,CGTTCCCA,-0.213
23,AAACCTCC,0.0453
24,CGCCTCCG,0.0049
25,CAGAGAAA,0.0176

row,Sequence,binding signal [E-score]
1,CTGGATTC,0.0609
2,TCCTTTAA,-0.0192
3,CCTTGTAC,-0.153
4,CCGCTGAG,0.0556
5,AATTTTGG,-0.0838
6,ACGGAAAG,-0.0772
7,ACCGGGAT,0.313
8,CCACTTCC,-0.132
9,AAATGCTT,-0.247
10,TACTCTAA,0.11
11,ATAGCTTG,0.056
12,TGTACCAA,-0.0246
13,ACGACTAT,0.141
14,GAAACGTC,-0.259
15,GCTTCGCA,-0.236
16,GGGGCAAA,-0.03
17,GATCTACC,0.343
18,GAATTGCC,-0.293
19,ACCCAAGA,-0.0172
20,GCGTATAA,0.16
21,CAGACTTA,-0.192
22,AACGGTCA,-0.156
23,AGAGGCCA,-0.234
24,CTTGTACC,-0.143
25,GCCGCAAC,-0.054

row,Sequence,binding signal [E-score]
1,ACGTTTCA,-0.0877
2,GCAACGCA,-0.26
3,AAACGAAA,-0.171
4,CGTTGAAA,-0.226
5,AGTACAGG,-0.169
6,AGTTATGG,-0.281
7,ATACATTC,0.188
8,CAAGTTGC,-0.184
9,ACAAGGCG,-0.105
10,AACGGTTG,-0.2
11,GTCTTCCA,-0.295
12,CCTACACG,0.0228
13,CGTGCCAA,-0.228
14,CCTGAGGA,0.092
15,ACGCGGCA,-0.233
16,AATACGGA,0.169
17,TAAGATTA,0.0857
18,GCTTCTTA,-0.0935
19,GATTCACA,-0.0224
20,GTGATCAC,0.306
21,GATCAGCC,0.293
22,ACCGTGTC,0.0715
23,AAGTTTAG,-0.0875
24,GACACGAC,0.0694
25,GTGTCTTA,0.0446

row,Sequence,binding signal [E-score]
1,ACCCATCC,0.134
2,TGTCGGAA,0.0291
3,ACATTCCT,-0.119
4,ACATTGCC,-0.176
5,AGCAACGA,0.0876
6,CTCCGGTC,0.0798
7,AACGTGCC,-0.27
8,AGCTACCG,-0.108
9,TACGGCAA,-0.062
10,ATCTGATA,0.446
11,AGCACTAT,0.136
12,CGTTTGCC,-0.063
13,CAGAACAA,0.176
14,TCAAAGCA,-0.0755
15,CTCCCACA,0.00948
16,CAAAAATG,0.0133
17,ACAGTTCT,-0.0496
18,CTGGGGAC,-0.19
19,CCCAGTAA,0.0044
20,GCAATGGC,-0.16
21,CAGAACGG,-0.1
22,ACGAAGCC,-0.181
23,AATCAGGA,0.15
24,TCGGCGCA,-0.0945
25,CGGGAGAA,-0.0174

row,Sequence,binding signal [E-score]
1,TCACAACA,-0.051
2,TCGTGTCA,0.125
3,TATATAGA,0.133
4,CCTTCTCA,0.319
5,CCATACCC,0.274
6,AAGACCTC,-0.26
7,CGCTAACA,-0.121
8,ATGGTAAG,-0.0376
9,AAGGGTTG,-0.12
10,CCGATGCG,0.215
11,CTTAACTA,-0.0135
12,CATATTCA,0.0617
13,CACAAGGG,-0.0104
14,GGGCATCA,0.109
15,CCCAAAAC,0.0568
16,AGATTCTA,-0.0391
17,CGAGTCCG,-0.162
18,AGTAGCAT,0.0466
19,AACGATGT,-0.135
20,CCAAATAG,-0.0162
21,CAGGTATC,0.464
22,GGAATACA,0.035
